Measured values: PubChem BioAssay (NCI)
Where “and” joins values, the source holds several entries; their conditions need not be identical. Equal values may be shown once.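 48-hour exposure; five concentrations; linearly interpolated endpoints. GI50 is the concentration that inhibits growth by half. TGI: total growth inhibition.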 Peptide text beside a SMILES is read from it. * marks the point of attachment. Palmitoyl = CCCCCCCCCCCCCCCC(=O)*; Boc = CC(C)(C)OC(=O)*

Test system: NCI-H322M lung
Test: NCI tumour cell line growth inhibition, 48 h

Row | Structure (SMILES) | GI50 | TGI
1 | COc1ccc(CC2C(=O)NC(C)C(=O)N(C)C3Cc4ccc(cc4)Oc4cc(ccc4O)CC(C(=O)NC(C)C(=O)NC(C)C(=O)N2C)N(C)C3=O)cc1 (centres undefined) | < 0.0001 µM | 0.0411 µM and 0.0273 µM
2 | Cc1cccc(CC(C)(C)C)c1NC(=O)C(=O)C(C(=O)c1ccc2ccccc2c1)C1OC(=O)c2ccccc21 (centres undefined) | – | > 100 µM
3 | c1csc(-c2ccc(-c3ccc(-c4cccs4)s3)s2)c1 | – | > 100 µM
4 | COc1ccc(S(=O)(=O)Nc2ccc(-c3csc(N4C(=O)/C(=C/C=C\c5ccccc5)N=C4c4ccccc4)n3)cc2)cc1Cl | – | > 100 µM
5 | CC(C)=C1CCC(CN2CCCC2)C1=O (centres undefined) | – | > 100 µM
6 | CCOc1cccnc1/C=N/NC(N)=S | 3.8 µM | > 100 µM
7 | Nc1ncnc2c1ncn2Cc1ccc(C23CC4CC(CC(C4)C2)C3)c(O)c1 | 12.1 µM | > 100 µM
8 | COC(=O)CCc1ccc2c(c1)CC1(C2)Cc2ccc(CCC(=O)OC)cc2C1 | – | > 100 µM
9 | CC(=O)c1c(O)c(C)c(O)c2c1OC1=CC(=O)C(C(C)=O)C(=O)C12C (centres undefined) | 5.75 µM and 20 µM | 26.8 µM and 80 µM
10 | O=C(Nc1ccccc1)Nc1ccccc1CNc1nc(Nc2ccc(OCCN3CCCC3)cc2)ncc1Cl | 6.14 µM | 12.4 µM
11 | CCCCC(=C=C1CCCCC1O)C1CCCN1C(=O)OC(C)(C)C (centres undefined) | – | 29.6 µM
12 | O=C(Cc1nc2ccc([N+](=O)[O-])cc2[nH]c1=O)C(=O)Nc1cc(Cl)c(Cl)cc1Cl | – | > 100 µM
13 | COc1cccc(N2N=C3c4ccccc4-n4c(nc5ccccc54)C3C2N)c1 (centres undefined) | – | > 100 µM
14 | CC[C@@]1(OC(=O)CN(C)C)C(=O)OCc2c1cc1n(c2=O)Cc2cc3ccccc3nc2-1 | – | 4.86 µM
15 | CC(=O)Nc1ncc2c(n1)-c1ccccc1OC2 | – | > 100 µM
16 | O=C1c2ccccc2C(=O)c2c1ccc1c3ccccc3n(Cc3ccccc3)c21 | – | > 100 µM
17 | C#Cc1ccc(-n2c(/C=C/c3cc(OC)c(OC)c(OC)c3)nc3ncccc3c2=O)cc1 | 14.1 µM | > 100 µM
18 | CCOC(=O)C1=C(c2ccccc2)N(Cc2ccccc2)C2(O)C=CC(=O)C3C(=O)N(c4ccccc4)C(=O)C132 (centres undefined) | 1.89 µM | 3.58 µM
19 | COc1ccc(C=O)cc1Oc1ccc(C[C@H]2c3c(cc(OC)c4c3Oc3cc5c(cc3O4)CCN(C)C5=O)CCN2C)cc1 | – | 17.6 µM
20 | CCCCCCN(CCCCCC)CC(O)c1cccc2ccc(Cl)cc12 (centres undefined) | 10.7 µM | 24.6 µM
21 | CN(C)CCNc1nc2ccccc2c2c1C(=O)c1ccccc1-2 | – | 3.77 µM
22 | O=C1N2CCc3c([nH]c4ccccc34)C23CC2CCCC12S3 (centres undefined) | – | > 50 µM

Row | Structure (SMILES) | GI50 | TGI
23 | Cc1ccc(OCCCCCCNCCO)c(C)c1 | 15.5 µM | 30.7 µM
24 | CN1C(=O)[C@@]2(C=CC3(CC2)OCCO3)c2ccccc21 | – | > 50 µM
25 | BrCC[P+](c1ccccc1)(c1ccccc1)c1ccccc1 | – | 39.7 µM
26 | COc1ccc(-n2nc(C)c3c2N(C)C2(C)C[C@@H]4C3(C)[C@@H]3CC4(C2)N(C)c2c(c(C)nn2-c2ccc(OC)cc2)[C@H]3C)cc1 (some centres undefined) | 22.4 µM | > 100 µM
27 | CSc1nc(Br)nc2c1ncn2C1CC(Oc2ccc(C)cc2)C(COc2ccc(C)cc2)O1 (centres undefined) | – | > 100 µM
28 | NC(CO)c1ccccc1 (centres undefined) | – | > 100 µM
29 | CC(C)[Si]1(C(C)C)OCC2OC(n3cnc4c(N)ncnc43)C(N)C2O[Si](C(C)C)(C(C)C)O1 (centres undefined) | – | > 79.7 µM
30 | C=C(CCC(C(=O)O)C1CCC2(C)C3=C(CCC12C)C1(C)CCC(O)C(C)(C)C1CC3)C(C)C (centres undefined) | – | > 100 µM
31 | CCCCCCCC(CC(=O)O)OC(=O)CC(CCCCCCC)OC1OC(C)C(O)C(O)C1OC1OC(C)C(O)C(O)C1O (centres undefined) | – | > 100 µM
32 | Clc1ccccc1C1=NN(c2ccccc2)C2c3cc(Br)ccc3OCC12 (centres undefined) | – | > 100 µM
33 | CC1SC2(CCCCC2)N(NC(=O)c2[nH]c3ccc(F)cc3c2-c2ccccc2)C1=O (centres undefined) | > 100 µM | > 100 µM
34 | CCCOc1c2cc(COC3OC(CO)C(O)C(O)C3O)cc1Cc1cc(COC3OC(CO)C(O)C(O)C3O)cc(c1OCCC)Cc1cc(COC3OC(CO)C(O)C(O)C3O)cc(c1OCCC)Cc1cc(COC3OC(CO)C(O)C(O)C3O)cc(c1OCCC)C2 (centres undefined) | > 100 µM and 41.7 µM and 35.6 µM | > 100 µM
35 | O=C(O)c1ccc(Nc2cnc3ccc(C(F)(F)F)cc3n2)cc1 | – | 37.9 µM
36 | CSCCC(NC(=O)C(CC(C)C)NC(=O)CNC(=O)OC(C)(C)C)C(=O)N(C)C (stereo not drawn) (Boc-Gly-Leu-Met-NMe2; configuration not given here) | – | > 100 µM
37 | COc1ccc(-c2c(C(C)=O)c(C)n(C3OC(CO)C(O)C(O)C3O)c(=S)c2C#N)cc1 (centres undefined) | – | > 100 µM
38 | CC(=O)N[C@@H]1CCC[C@H](C(=O)Nc2cc(-c3cnn4c3CC(C)(C)C4)c(Cl)cn2)C1 | < 0.0129 µM | > 37.6 µM
39 | O=C(OCc1nc2ccc(Br)cc2c(=O)n1-c1ccccc1)c1ccccc1O | – | > 100 µM
40 | Cn1c(=O)c2[nH]c(N/N=C3/SCC(=O)N3Cc3ccccc3)nc2n(C)c1=O | – | > 100 µM
41 | COC(=O)C(=O)C(C(=O)C(=O)Nc1ccccc1C(N)=O)c1nc2ccc(C(=O)c3ccccc3)cc2[nH]c1=O (centres undefined) | – | > 100 µM
42 | O=C(NO)C(O)C(O)C(O)C(O)CO (centres undefined) | > 100 µM and 53.6 µM | > 100 µM
43 | O=C(O)c1ccccc1-c1ccccc1C(=O)c1ccccc1 | – | > 100 µM
44 | COc1ccc(N(Cc2cc(OC)c(OC)c(OC)c2)C2OC(=O)c3ccccc32)cc1 (centres undefined) | 1.05 µM | > 100 µM

Row | Structure (SMILES) | GI50 | TGI
45 | CC(=O)OCC1OC(n2c3c(c(-c4ccco4)c(C#N)c2=S)CCCC3)C(OC(C)=O)C(OC(C)=O)C1OC(C)=O (centres undefined) | – | > 100 µM
46 | CN(C)c1ccc(Sc2ccc3nc(N)nc(N)c3c2)cc1 | 1.15 µM | 17.4 µM
47 | Cc1c(-c2coc(-c3ccc(Cl)cc3)n2)c(=O)n(-c2ccccc2)n1C | – | > 100 µM
48 | COC1C(CO)OC(n2c3ccccc3c3c4c(c5c6ccccc6[nH]c5c32)C(=O)NC4=O)C(O)C1OC(=O)C(N)CCCCN (centres undefined) | 0.798 µM | 2.99 µM
49 | Cc1nc(C(N)=S)sc1C(=O)CC(=O)C(=O)Nc1cccc(Cl)c1C | – | > 100 µM
50 | C=C(C)[C@@H]1CCC[C@]2(C(=O)O)CC[C@]3(C)[C@@H](CC[C@@H]4[C@@]5(C)C/C(=C/c6ccncc6)C(=O)C(C)(C)[C@@H]5CC[C@]43C)[C@@H]12 | 3.47 µM | 13.4 µM
51 | O=C1c2cccc3cccc(c23)C(=O)N1CCCN1CCN(CCCN2C(=O)c3cccc4cccc(c34)C2=O)CC1 | – | > 100 µM
52 | CCOC(=O)C(Cc1c(-c2[nH]c3ccccc3c2CC(NC(=O)CNC(C)=O)C(=O)OCC)[nH]c2ccccc12)NC(=O)CNC(C)=O (centres undefined) | – | > 100 µM
53 | CN1c2ccccc2C(=O)Nc2cnc(Cl)nc21 | – | > 100 µM
54 | CC(=O)c1nccc2c1c(C)nc1ccccc12 | – | > 100 µM
55 | COC(=O)c1cc2c3c(c(C(C)=O)c(OC)c2[nH]1)NCC3 | – | > 50 µM
56 | Cn1cc(-c2nn3cc(-c4cccs4)nc3s2)c2cc(F)ccc21 | 4.71 µM | > 100 µM
57 | Cc1cc(S(=O)(=O)NC(=NCC(=O)NN)NN)c(S)cc1Cl | – | > 10 µM
58 | C=C(C)[C@]12CC(C)C34OC(/C=C\C=C\CCCCCCCCC)(O[C@@H]1[C@@H]3[C@@H]1O[C@]1(CO)[C@@H](O)[C@]1(O)C(=O)C(C)=C[C@@H]41)O2 (some centres undefined) | – | 11.9 µM
59 | CN(C)CCn1c(=O)c2ccc(NCCNCCO)c3c(=O)c4cc(O)ccc4n(c1=O)c23 | – | 5.02 µM
60 | C/C(=N\O)c1ccc(Nc2c3ccccc3nc3occc23)cc1 | – | > 50 µM
61 | CCCCCCCCCCCCCCCC(=O)NC(CCCCN)C(=O)NCC(=O)NC(Cc1ccccc1)C(=O)N1CCCC1C(=O)NC(CO)C(=O)NC(Cc1ccc(O)cc1)C(=O)NC(CCCCN)C(=O)NC(CC(C)C)C(=O)NC(CCCN=C(N)N)C(=O)N1CCCC1C(=O)NCC(N)=O (centres undefined) (Palmitoyl-KGFPSYKLRPG-NH2; configuration not given here) | 20.3 µM | 51.9 µM
62 | Cn1c(COC(=O)NCCN2CCOCC2)nc2c(N3CCOCC3)nc(-c3ccccc3)nc21 | 1.72 µM | 3.67 µM
63 | CN(Cc1nc2c(N)nc(N)nc2nc1N)c1ccc(C(=O)NC(CCC(=O)O)C(=O)O)cc1 (centres undefined) | – | > 100 µM
64 | CCOP(=O)(OCC)C(F)(F)CC1CCCCC1 | – | > 10 µM
65 | COc1ccccc1NC(=O)C(=O)C1C(=O)Nc2ccccc2S1=O (centres undefined) | – | > 100 µM
66 | CCOC(=O)NNC(=O)NC12CC3CC(CC(C3)C1)C2 | – | > 100 µM

Row | Structure (SMILES) | GI50 | TGI
67 | Cc1cc(N)c2ccccc2[n+]1CCCCCCCCCC[n+]1c(C)cc(N)c2ccccc21 | 1.05 µM and 1.7 µM | 4.19 µM and 14.7 µM and 25.1 µM
68 | CC(=O)Oc1ccc2c(c1)c1c(OC(C)=O)c3ccccc3c(OC(C)=O)c1n2Cc1cccc(C)c1 | – | > 100 µM
69 | C/C=C\C(CC(=O)O)CC(=O)NCCC1CN(S(=O)(=O)C(F)(F)F)c2ccccc21 (centres undefined) | – | > 100 µM
70 | COc1cc([C@@H]2c3cc4c(cc3[C@@H](Nc3ccc(Cl)cc3C(=O)c3ccccc3Cl)[C@H]3COC(=O)[C@H]23)OCO4)cc(OC)c1OC | – | > 100 µM
71 | Nc1ccc2c(c1)CN1C(=O)c3ccccc3C1=N2 | – | > 125 µM
72 | Cc1ccc(Nc2nnc3n2S(=O)(=O)c2cc(C)c(Cl)cc2S3)cc1 | – | > 100 µM
73 | COC(=O)C1CCC(=NC2c3ccccc3-c3ccccc32)N1 (centres undefined) | – | > 100 µM
74 | CCCCCCCCCCCCCCCC(=O)N[C@H]1CCc2cc(OC)c(OC)c(OC)c2-c2ccc(SC)c(=O)cc21 | 3.35 µM | 34.8 µM and 37.9 µM
75 | COc1cc(C2c3cc4c(cc3[C@@H](Nc3cccc(O)c3)C3COC(=O)[C@H]23)OCO4)cc(OC)c1O (some centres undefined) | – | 43.7 µM
76 | CN1C/C(=C\c2ccccc2[N+](=O)[O-])C(=O)/C(=C/c2ccccc2[N+](=O)[O-])C1 | – | 5 µM and 11.8 µM
77 | C=CCOn1c(C=C)nc2c(C)cccc21 | – | 14.7 µM
78 | COc1ccc([C@@]23CCC(=O)C[C@@H]2N(C)CC3)cc1OC | – | > 100 µM
79 | O=c1[nH]c2cc(O)ccc2n2cc3c(F)cccc3c12 | 5.03 µM | > 100 µM
80 | O=C1/C(=C/c2ccccc2)CN(C(=O)OCC(Cl)(Cl)Cl)C/C1=C\c1ccccc1 | – | 47 µM
81 | CC1(C)CC2(C)OC2C2(C1)N=NC(=Nc1ccccc1)O2 (centres undefined) | 16.1 µM | 40.2 µM
82 | C=C1C(=O)O[C@H]2C(=O)[C@H](C)CCC[C@@](C)(O)/C=C\C[C@@]3(C)O[C@@H]3C[C@@H]12 | – | 74.5 µM
83 | C=CCN1C(=O)/C(=C/c2ccc(Cl)cc2)N=C1SC1OC(COC(C)=O)C(OC(C)=O)C(OC(C)=O)C1OC(C)=O (centres undefined) | – | > 100 µM and 85.1 µM
84 | COC1=CC2(C=CC1=O)CCN=c1c(O)c3c(c(O)c12)=NC=N3 (centres undefined) | – | > 100 µM
85 | COc1cc2cc3c4c(cc(OC)c(OC)c4c2cc1OC)CCN3C(=O)OCCBr | – | > 100 µM
86 | Cc1csc(Nc2nc(-c3cccc(Cl)c3)nc(C(Cl)(Cl)Cl)n2)n1 | 0.701 µM | 1.91 µM
87 | CCCCCCCCCCCCCCCC(=O)OCC1OC(n2ccc(N)nc2=O)C(O)C1O (centres undefined) | – | > 100 µM
88 | O=C(NCCCCl)c1c(O)c2ccccc2[nH]c1=O | – | > 100 µM
